From patent US5972894A, “Peptides having potassium channel opener activity” (Cytran, Inc., priority 1997, dated 1999)
At least one peptide structure holds a part that was inferred or is arguable (an end, a ring closure or a residue). Residues, ends and D or L forms follow the SMILES beside them.

How the values were obtained:
[1] = system: Intestinal Smooth Muscle; assay: Calcium-induced contraction of intestinal smooth muscle specimens; assay type: cell-based, guinea pigs; settings: for Contraction Amplitude, calcium-induced (% of control level): 20 mM CaCl2
Description: GE and VT served as test substances in this experiment. GE was tested at concentrations of 10^-6 g/ml and 10^-5 g/ml (4.9×10^-6 M and 4.9×10^-5 M, respectively), and VT was tested at concentrations 10^-6 g/ml and 10^-5 g/ml (4.58×10^-6 and 4.58×10^-5 M, respectively).
Small intestinal SMS samples from ten guinea pigs were surgically isolated and prepared as follows. First, the SMS samples were preincubated for 40 minutes in an organ bath holding a standard Krebs-Henseleit physiological salt solution containing calcium chloride (CaCl2) at concentration of 2.5 mM. Next, each SMS was washed with a calcium-free solution of Krebs-Henseleit and incubated in a calcium-free Krebs-Henseleit solution for 40 minutes. Contractile activity was pre-induced in each SMS by first perfusing the organ bath containing the sample for 15 minutes with a Krebs-Henseleit solution containing 30 mM KCl and then perfusing the bath for an additional 15 minutes with a Krebs-Henseleit solution containing 20 mM CaCl2. […] Changes in contraction amplitudes were recorded by using the method set forth in Step 1 of Example 2, above. […]
Following perfusion with the test or reference substance, the SMS sample/organ bath was perfused for 10 minutes with a Krebs-Henseleit solution containing 30 mM KCl and then perfused for an additional 10 minutes with a Krebs-Henseleit solution containing 20 mM CaCl2. […] The effect of the test or reference substance on the SMS sample was evaluated by measuring the contractile response (i.e., the change in contraction amplitude) of the sample following the addition of the Krebs-Henseleit solution containing 20 mM CaCl2.
Next, the organ bath was perfused for 10 minutes with a Krebs-Henseleit solution containing 30 mM KCl and then for additional 10 minutes with a Krebs-Henseleit solution containing 20 mM CaCl2. The effect of the respective test or reference substance was evaluated a second time by measuring the change in the contraction amplitude of the SMS following the addition of the Krebs-Henseleit solution containing 20 mM CaCl2. […]

[2] = system: mice; assay: Chloroform-induced arrhythmia; assay type: in vivo
[3] = system: rats; assay: Arterial blood pressure in anesthetized rats; assay type: in vivo
Description: White random-bred male rats weighing approximately 200 g were employed for this study. Each dose of each respective test or control substance was administered to a group of five rats. GE and VT were employed as test substances and were administered intravenously at doses of 0.01, 0.1, 1.0, and 10.0 mg/kg. Physiological saline (0.2 ml) served as the negative control substance. The ganglionic blocking agent, pentamine, served as the positive control substance and was tested at a dose of 5 mg/kg. Following administration of the test substance, positive control substance, or negative control substance, the arterial blood pressure of each animal was monitored.
Prior to administration of the test or control substance, each animal was anesthetized with Chloralose and then both its carotid artery and jugular vein were catheterized. The carotid catheter was connected to an electronic manometer attached to a computer recorder through an analog-to-digital converter. The mean basal level of the arterial blood pressure was determined as follows: For a period of 30 seconds, the digital signal pertaining to the arterial blood pressure was recorded at 1-second intervals. The mean value of these thirty individual measurements was then determined and recorded.
After determining the mean basal level of the arterial blood pressure, a particular dose of the test or control substance was administered in a volume of 0.2 ml of physiological saline to an animal through the jugular venous catheter. Measurements of the arterial blood pressure were then taken during the next 1.5 hours as follows: (i) during the first 5 minutes, the arterial blood pressure was being monitored continuously and mean values were calculated electronically and recorded at each of the ten different 30-second intervals (i.e., 30th second, 60th second, etc.); (ii) thereafter, mean values of the arterial blood pressure were calculated at the first seconds of 10th minute, 15th minute, 30th minute, 45th minute, 60th minute, 75th minute, and 90th minute after administration of the respective test or control substance.

[4] = 0.001 mg/kg i.p. 15 min before chloroform
[5] = 0.01 mg/kg i.p. 15 min before chloroform
[6] = 0.1 mg/kg i.p. 15 min before chloroform
[7] = 1.0 mg/kg i.p. 15 min before chloroform
[8] = 10.0 mg/kg i.p. 15 min before chloroform

In the case of `CC(C)[C@H](N)C(=O)N[C@H](C(=O)O)[C@@H](C)O` [VT, L-Valine-L-Threonine] (H-Val-Thr-OH), the “effect on calcium-induced intestinal smooth muscle tonic contraction” value ([1]; 10^-6 and 10^-5 g/ml) is reported as “significantly reduced the amplitude”, the “Contraction Amplitude, calcium-induced (% of control level)” value ([1]; Application I, 10^-6 g/ml) is reported as 26.58% and the “Contraction Amplitude, calcium-induced (% of control level)” value ([1]; Application II, 10^-5 g/ml) is reported as 11.51%. The “Antiarrhythmic Effect (no. animals) %” value [2, 4] was 0%, the “Antiarrhythmic Effect (no. animals) abs” value [2, 4] was 0 and the Result [2, 4] was “No effect”. The “Antiarrhythmic Effect (no. animals) %” value [2, 5] was 33.3%, the “Antiarrhythmic Effect (no. animals) abs” value [2, 5] was 3 and the Result [2, 5] was “Antiarrhythmic effect”. The “Antiarrhythmic Effect (no. animals) %” value [2, 6] was 44.6%, the “Antiarrhythmic Effect (no. animals) abs” value [2, 6] was 4 and the Result [2, 6] was “Antiarrhythmic effect”. For the same compound, the “Antiarrhythmic Effect (no. animals) %” value [2, 7] was 66.7%, the “Antiarrhythmic Effect (no. animals) abs” value [2, 7] was 6 and the Result [2, 7] was “Antiarrhythmic effect”. The “prevention of chloroform-induced ventricular arrhythmias” value ([2]; 0.01, 0.1, 1.0, or 10.0 mg/kg) was “prevent the development of ventricular arrhythmias”, the “Antiarrhythmic Effect (no. animals) %” value [2, 8] was 44.4% and the “Antiarrhythmic Effect (no. animals) abs” value [2, 8] was 4. For the same compound, the Result [2, 8] was “Antiarrhythmic effect”, the “Arterial Blood Pressure (Basal Level = 100.00)” value ([3]; 0.01 mg/kg i.v., 1 min) was 100.43% and the “Arterial Blood Pressure (Basal Level = 100.00)” value ([3]; 0.01 mg/kg i.v., 2 min) was 102.91%. For the same compound, the “Arterial Blood Pressure (Basal Level = 100.00)” value ([3]; 0.01 mg/kg i.v., 3 min) was 102.64%, the “Arterial Blood Pressure (Basal Level = 100.00)” value ([3]; 0.01 mg/kg i.v., 4 min) was 102.82% and the “Arterial Blood Pressure (Basal Level = 100.00)” value ([3]; 0.01 mg/kg i.v., 10 min) was 104.19%. For the same compound, the “Arterial Blood Pressure (Basal Level = 100.00)” value ([3]; 0.01 mg/kg i.v., 15 min) was 100.43%, the “Arterial Blood Pressure (Basal Level = 100.00)” value ([3]; 0.01 mg/kg i.v., 30 min) was 102.91% and the “Arterial Blood Pressure (Basal Level = 100.00)” value ([3]; 0.01 mg/kg i.v., 45 min) was 102.64%. For the same compound, the “Arterial Blood Pressure (Basal Level = 100.00)” value ([3]; 0.01 mg/kg i.v., 60 min) was 102.82%, the “Arterial Blood Pressure (Basal Level = 100.00)” value ([3]; 0.01 mg/kg i.v., 90 min) was 104.19% and the “Arterial Blood Pressure (Basal Level = 100.00)” value ([3]; 0.1 mg/kg i.v., 1 min) was 96.32%. The “Arterial Blood Pressure (Basal Level = 100.00)” value ([3]; 0.1 mg/kg i.v., 2 min) was 95.49%, the “Arterial Blood Pressure (Basal Level = 100.00)” value ([3]; 0.1 mg/kg i.v., 3 min) was 96.75% and the “Arterial Blood Pressure (Basal Level = 100.00)” value ([3]; 0.1 mg/kg i.v., 4 min) was 97.02%. The “Arterial Blood Pressure (Basal Level = 100.00)” value ([3]; 0.1 mg/kg i.v., 5 min) was 96.12%, the “Arterial Blood Pressure (Basal Level = 100.00)” value ([3]; 0.1 mg/kg i.v., 10 min) was 88.85% and the “Arterial Blood Pressure (Basal Level = 100.00)” value ([3]; 0.1 mg/kg i.v., 15 min) was 96.32%. The “Arterial Blood Pressure (Basal Level = 100.00)” value ([3]; 0.1 mg/kg i.v., 30 min) was 95.49%, the “Arterial Blood Pressure (Basal Level = 100.00)” value ([3]; 0.1 mg/kg i.v., 45 min) was 96.75% and the “Arterial Blood Pressure (Basal Level = 100.00)” value ([3]; 0.1 mg/kg i.v., 60 min) was 97.02%. For the same compound, the “Arterial Blood Pressure (Basal Level = 100.00)” value ([3]; 0.1 mg/kg i.v., 75 min) was 96.12%, the “Arterial Blood Pressure (Basal Level = 100.00)” value ([3]; 0.1 mg/kg i.v., 90 min) was 88.85% and the “Arterial Blood Pressure (Basal Level = 100.00)” value ([3]; 1.0 mg/kg i.v., 1 min) was 93.39%. The “Arterial Blood Pressure (Basal Level = 100.00)” value ([3]; 1.0 mg/kg i.v., 2 min) was 91.46%, the “Arterial Blood Pressure (Basal Level = 100.00)” value ([3]; 1.0 mg/kg i.v., 3 min) was 96.91% and the “Arterial Blood Pressure (Basal Level = 100.00)” value ([3]; 1.0 mg/kg i.v., 4 min) was 97.40%. The “Arterial Blood Pressure (Basal Level = 100.00)” value ([3]; 1.0 mg/kg i.v., 5 min) was 96.72%, the “Arterial Blood Pressure (Basal Level = 100.00)” value ([3]; 1.0 mg/kg i.v., 10 min) was 97.05% and the “Arterial Blood Pressure (Basal Level = 100.00)” value ([3]; 1.0 mg/kg i.v., 15 min) was 93.39%. For the same compound, the “Arterial Blood Pressure (Basal Level = 100.00)” value ([3]; 1.0 mg/kg i.v., 30 min) was 91.46%, the “Arterial Blood Pressure (Basal Level = 100.00)” value ([3]; 1.0 mg/kg i.v., 45 min) was 96.91% and the “Arterial Blood Pressure (Basal Level = 100.00)” value ([3]; 1.0 mg/kg i.v., 60 min) was 97.40%. The “Arterial Blood Pressure (Basal Level = 100.00)” value ([3]; 1.0 mg/kg i.v., 75 min) was 96.72%, the “Arterial Blood Pressure (Basal Level = 100.00)” value ([3]; 1.0 mg/kg i.v., 90 min) was 97.05% and the “Arterial Blood Pressure (Basal Level = 100.00)” value ([3]; 10.0 mg/kg i.v., 1 min) was 78.46%. The “Arterial Blood Pressure (Basal Level = 100.00)” value ([3]; 10.0 mg/kg i.v., 2 min) was 80.96%, the “Arterial Blood Pressure (Basal Level = 100.00)” value ([3]; 10.0 mg/kg i.v., 3 min) was 81.99% and the “Arterial Blood Pressure (Basal Level = 100.00)” value ([3]; 10.0 mg/kg i.v., 4 min) was 87.13%. For the same compound, the “Arterial Blood Pressure (Basal Level = 100.00)” value ([3]; 10.0 mg/kg i.v., 5 min) was 92.77%, the “Arterial Blood Pressure (Basal Level = 100.00)” value ([3]; 10.0 mg/kg i.v., 10 min) was 93.85% and the “Arterial Blood Pressure (Basal Level = 100.00)” value ([3]; 10.0 mg/kg i.v., 15 min) was 78.46%. For the same compound, the “Arterial Blood Pressure (Basal Level = 100.00)” value ([3]; 10.0 mg/kg i.v., 30 min) was 80.96%, the “Arterial Blood Pressure (Basal Level = 100.00)” value ([3]; 10.0 mg/kg i.v., 45 min) was 81.99% and the “Arterial Blood Pressure (Basal Level = 100.00)” value ([3]; 10.0 mg/kg i.v., 60 min) was 87.13%. The “Arterial Blood Pressure (Basal Level = 100.00)” value ([3]; 10.0 mg/kg i.v., 75 min) was 92.77%, the “Arterial Blood Pressure (Basal Level = 100.00)” value ([3]; 10.0 mg/kg i.v., 90 min) was 93.85% and the “effect on mean arterial blood pressure” value ([3]; after about 60 to 90 minutes) was “moderate, but delayed, decrease in the mean arterial blood pressure”.
